PubChem BioAssay AID504466 (National Center for Advancing Translational Sciences (NCATS), 2011)
Out of some 330,000 compounds screened, about 4,200 (1.3%) were called active. The shares of active, inactive and inconclusive entries below differ from those in the screen. Calls follow the shape of the dose curve; as a rule, active = well fitted activation curve with a large enough effect; inconclusive = small, poorly fitted or top-dose-only effect; inactive = no such curve, though single readings can be large or run the other way. Where the call is inconclusive, the potency comes from a doubtful curve fit.

Assay: qHTS screen for small molecules that induce genotoxicity in human embryonic kidney (HEK293T) cells expressing luciferase-tagged ELG1; also: nearly all actives have a fitted effect of over 60% in size
Conditions: HEK293T ELG1-luciferase reporter, luminescence, 16 h; series mostly up to 46 µM
How it was run: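 After overnight (16 hr) compound treatment at 37 °C, ELG1-luciferase HEK293T cells were lysed with ONE-Glo; luminescence quantified 30 min later at room temperature.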
Potency is read from the fitted curve at half-maximal effect; tags tell the direction and shape of the fitted curve.

Compound | Potency
CCOC(=O)CSc1nc2cc(C)cc(C)c2cc1C#N | inactive
COc1cc(C(=O)N/N=C(\C)c2ccc3c(c2)OCO3)cc(OC)c1OC | inactive
COc1ccc(C(=O)N/N=C(/C)c2cccc(NC(=O)c3ccccc3F)c2)cc1 | inactive
CC(C)Oc1cccc(C(=O)Nc2ccccc2N2CCOCC2)c1 | inactive
Cc1ccc(/C=N/Nc2ccccn2)s1 | inconclusive: 20.6 µM [activator, partial curve, poor fit]
C=CCn1c(SCC(N)=O)nnc1-c1cc2c(s1)CCC(CC)C2 (stereo not drawn) | inconclusive: 14.6 µM [activator, partial curve, poor fit]
Nc1ccc2nc(-c3ccc(N)c(Cl)c3)[nH]c2c1 | inconclusive: 16.4 µM [activator, partial curve, poor fit]
CC(C)=CCN1CCN(Cc2ccc(C)s2)CC1CCO (stereo not drawn) | inactive
CCOC(=O)c1cn2nc(SCc3ccccc3)nc2nc1C | inconclusive: 13 µM [activator, partial curve, poor fit]
COc1ccc(Cc2nnc(SCC(=O)NC3(C#N)CCCCC3)n2N)cc1 | inactive
CCCCC(=O)N/C(N)=N/c1nc2ccccc2o1 | inconclusive: 2.59 µM [activator, partial curve]
Cc1cc(OCc2cc(C(=O)N(C)C(C)c3ccccn3)no2)cc(C)c1Cl (stereo not drawn) | inconclusive: 20.6 µM [activator, partial curve, poor fit]
O=C(Nc1ccc(NC(=O)C2CC2)cn1)c1ccccc1Cl | inconclusive: 4.11 µM [activator, single point]
Cc1ccccc1C(=O)Nc1ccc(N2CCCCCC2)cc1 | inconclusive: 9.2 µM [activator, partial curve]
CC(=O)N1c2ccccc2Oc2cc3ccccc3cc21 | inconclusive: 16.4 µM [activator, partial curve, poor fit]
Cc1cc(C)cc(NC(=O)CSc2nnc(-c3ccccc3Br)o2)c1 | inconclusive: 18.4 µM [activator, single point]
COc1ccc(OC)c(C=Nc2ccccc2-c2nc3ccccc3[nH]2)c1 | inconclusive: 18.4 µM [activator, partial curve, poor fit]
O=C(Nc1nnc(-c2cccs2)s1)c1cccc(F)c1 | inconclusive: 10.3 µM [activator, partial curve]
CCOC(=O)c1cnc(SCCc2ccccc2)nc1N | inconclusive: 10.3 µM [activator, partial curve]
COc1ccccc1C(=O)Nc1nnc(SCC(=O)NC2CCCC2)s1 | active: 2.31 µM
CCN1CCN(C(=O)CSc2cc(=O)n(CC)c3ccccc23)CC1 | active: 20.6 µM
NC(=O)C1CCN(Cc2ccc(OCc3ccccc3)cc2)CC1 | inconclusive: 15.8 µM [activator, single point]
O=C(Nc1ccc(N2CCOCC2)cc1)c1ccc([N+](=O)[O-])o1 | active: 9.2 µM
COc1cccc(C(=O)Nc2nnc(C3CCCO3)s2)c1 (stereo not drawn) | inconclusive: 6.51 µM [activator, partial curve, poor fit]

Compound | Potency
CN(C(=O)C1CCCCC1)C1(C)CCS(=O)(=O)C1 (stereo not drawn) | inactive
CCOC(=O)c1c(C)[nH]c(C(=O)NCc2ccccc2OC)c1C | inconclusive: 14.6 µM [activator, partial curve]
Nc1nonc1-c1noc(COc2ccccc2Cl)n1 | active: 5.17 µM
Oc1ccc(-c2csc(Nc3ccccn3)n2)c(O)c1 | active: 9.2 µM
Cc1ccc(NC(=O)C(=O)N2CCCC2)cc1Cl | inconclusive: 16.4 µM [activator, partial curve]
O=C(c1ccc(CSc2nc3ccncc3[nH]2)cc1)N1CCCCCC1 | inconclusive: 10.3 µM [activator, partial curve]
O=C(Nc1cc2c(cc1C(=O)O)OCCCO2)c1ccc(F)cc1F | inconclusive: 8.91 µM [activator, partial curve, poor fit]
O=C(Nc1nc2ccc(F)cc2s1)c1ccccn1 | inconclusive: 0.291 µM [activator, partial curve, poor fit]
O=C(CSc1ncccc1C(=O)O)Nc1ccc2c(c1)OCCO2 | inactive
CC(=O)Nc1ccc(C(=O)OCC(=O)N2CC3(C)CC2CC(C)(C)C3)cc1 (stereo not drawn) | inactive
Cc1ccc(OCC(=O)O/N=C(\N)c2ccccn2)cc1C | active: 8.2 µM
S=C(Nc1ccccc1)Nc1nc2ccccc2n1CCOc1ccc(Br)cc1 | inconclusive: 29.1 µM [activator, single point]
Cc1cccc(NC(=O)Cn2c(=O)n(Cc3ccco3)c(=N)c3c4c(sc32)COC(C)(C)C4)c1 | inactive
COc1cc(NC(=O)c2ccccc2-c2ccccc2)cc(OC)c1 | inactive
Cc1cc(-c2nnc(-c3cc4ccccc4oc3=O)o2)c(C)n1-c1ccccc1 | inconclusive: 16.4 µM [activator, partial curve, poor fit]
CC(=O)Nc1cccc(C(=O)OCC(=O)N2CCC(c3ccccc3)=N2)c1 | inconclusive: 13 µM [activator, partial curve]
Cc1cccc(NC(=O)c2oc3c(c2C)C(=O)CC(C)(C)C3)n1 | inconclusive: 18.4 µM [activator, partial curve, poor fit]
CC1CCN(S(=O)(=O)c2ccc(C(=O)Nc3ccccn3)cc2)CC1 | active: 20.6 µM
COc1ccc(-c2cn3cc(C)ccc3n2)cc1F | inconclusive: 0.73 µM [activator, partial curve, poor fit]
O=c1c(C=NCCCn2ccnc2)c(-c2ccccc2)[nH]n1-c1nc2ccccc2s1 | inconclusive: 11.6 µM [activator, partial curve]
Cc1cc(C(=O)NNC(=O)c2sccc2C)c(C)o1 | inactive
Cc1ccc(Nc2nc(-c3cccnc3)cs2)cc1C | active: 2.31 µM
CCSc1nnc(-c2cccs2)o1 | inconclusive: 20.6 µM [activator, partial curve, poor fit]
O=C(O)c1ccccc1NC(=O)c1cc2ccccc2oc1=O | inconclusive: 16.4 µM [activator, partial curve, poor fit]
